Measured values taken from patent US20240400670A1 (JIANGSU HENGRUI PHARMACEUTICALS, published 2024).
Positions count from the first letter of the chain named. One block for each binder: values may come before it.

Assays:
[1] = target: T1, IL-23 (R&D Systems, 1290-IL-010) (UniProt Q9NPF7 20-189; P29460 23-328); test: cell-based or functional assay
T1 sequence (looked up) 1: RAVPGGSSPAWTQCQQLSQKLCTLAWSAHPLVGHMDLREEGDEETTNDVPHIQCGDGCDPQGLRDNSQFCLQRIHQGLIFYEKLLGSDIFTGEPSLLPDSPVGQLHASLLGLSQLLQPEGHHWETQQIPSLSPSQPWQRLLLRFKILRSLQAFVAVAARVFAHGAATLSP
T1 sequence (looked up) 2: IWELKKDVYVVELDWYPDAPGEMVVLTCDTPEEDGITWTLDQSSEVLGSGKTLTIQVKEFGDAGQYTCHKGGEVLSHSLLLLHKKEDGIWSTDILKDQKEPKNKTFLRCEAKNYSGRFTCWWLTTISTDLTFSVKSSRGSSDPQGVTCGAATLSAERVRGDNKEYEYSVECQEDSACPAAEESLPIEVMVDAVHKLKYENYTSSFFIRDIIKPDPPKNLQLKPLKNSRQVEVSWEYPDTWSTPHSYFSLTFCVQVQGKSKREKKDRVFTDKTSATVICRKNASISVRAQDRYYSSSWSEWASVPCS

[2] = target: cynomolgus monkey IL-23 (Acro Biosystems, ILB-CM52W8) (cynomolgus monkey, UniProt H6WS56 20-189); test: SPR (Biacore), Protein A capture of sample, 1:1 model
Procedure: (§1) A certain amount of test sample was subjected to affinity capture by a biosensor chip Protein A (GE, 29127556), and then antigens at a series of concentration gradients were allowed to flow on the surface of the chip. The reaction signals were detected in real time by using Biacore (GE, 8 K) to obtain association and dissociation curves. After the dissociation was completed for each cycle, the biochip was washed and regenerated with a 10 mM glycine-hydrochloric acid solution at pH 1.5 (GE, BR-1003-54). Fitting was performed based on the experimental data using BlAevaluation version 4.1 software with a 1:1 model, and affinity values were obtained.

[3] = target: T2, human IL-23 (Sino Biological, CT048-H08H) (human, UniProt Q9NPF7 20-189; P29460 23-328); test: as above
T2 construct: also called human IL-23 protein; Human IL-23 p19
T2 sequence (looked up) 1: T1 sequence (looked up) 1
T2 sequence (looked up) 2: T1 sequence (looked up) 2
Procedure: as §1

[4] = target: T3, human BAFF (Sino Biological, 10056-HNCH) (human, UniProt Q9Y275 partial chain); test: as above
T3 construct: also called BAFF protein
Procedure: as §1

[5] = target: mouse BAFF (Acro Biosystems, BAF-M521y) (mouse, UniProt Q9WU72 127-309, limits assumed); test: as above
UniProt Q9WU72, sequence (Q9WU72 127-309 limits assumed): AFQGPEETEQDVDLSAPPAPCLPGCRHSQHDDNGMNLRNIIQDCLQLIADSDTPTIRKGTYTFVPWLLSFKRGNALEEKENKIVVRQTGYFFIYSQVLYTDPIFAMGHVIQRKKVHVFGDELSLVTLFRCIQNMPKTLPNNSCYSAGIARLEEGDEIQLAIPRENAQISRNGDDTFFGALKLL
Procedure: as §1

[6] = target: T4, human APRIL (R&D Systems, 5860-AP-010/CF) (human, UniProt O75888 105-250, limits assumed); test: as above
T4 construct: the B cell assay names 'R&D Systems, 5860-AP'; also called APRIL protein
T4 sequence (looked up): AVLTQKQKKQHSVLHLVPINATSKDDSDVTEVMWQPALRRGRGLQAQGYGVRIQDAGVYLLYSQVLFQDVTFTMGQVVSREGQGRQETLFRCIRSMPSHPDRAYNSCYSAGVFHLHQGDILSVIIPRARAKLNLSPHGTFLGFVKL
Procedure: as §1

[7] = target: cynomolgus monkey APRIL (Kactus, APR-CM410B) (cynomolgus monkey); test: as above
Procedure: as §1

[8] = target: T3, human BAFF (Sino Biological, 10056-HNCH); test: competition ELISA, blocks BAFF/TACI; TACI coated, biotin-BAFF
Procedure: (§2) The specific procedures are as follows:
(§3) The receptor protein was diluted to 2 μg/mL with a PBS (BasalMedia, B320) buffer at pH 7.4 and added to a 96-well microplate (Corning, 3590) at 100 μL/well. The plate was incubated at 4° C. overnight. After the liquid was discarded, 1 % Casein blocking solution (Thermo, 37528) was added at 200 μL/well for blocking, and the plate was incubated at 37° C. for 2 h. After the blocking was complete, the blocking solution was discarded, and the plate was washed 3 times with a PBST buffer (pH 7.4 PBS containing 0.1 % tween-20) for later use. After the biotin-labeled ligand protein at a fixed concentration was mixed with an antibody or fusion protein diluted in a gradient, the mixture was pre-incubated at 37° C. for 30 min and then added to the blocked microplate. The plate was incubated at 37° C. for 1.5 h. After the incubation was complete, the plate was washed 3 times with PBST. Streptavidin-HRP (Invitrogen, 434323, diluted at 1:4000) was added at 100 μL/well, and the plate was incubated at 37° C. for 1 h. The supernatant was removed. […] The absorbance values at 450 nm were taken using a microplate reader. Curves for the inhibition of binding of the ligands to the receptors were fitted using software, and the IC₅₀ values were calculated.

[9] = target: T4, human APRIL (R&D Systems, …); test: competition ELISA, blocks APRIL/BCMA; BCMA coated, biotin-APRIL
Procedure: as §2, §3

[10] = target: T2, human IL-23 (Sino Biological, …); test: competition ELISA, blocks IL-23/IL-23R; IL-23R coated, biotin-IL-23 + sample gradient
Procedure: as §2, §3

IC50 for inhibiting IL-17 secretion [1]: 0.0165 nM | Kd [2]: 0.0718 nM | koff [2]: 0.00019 s⁻¹ | kon [2]: 2.65e+06 M⁻¹ s⁻¹ | Kd [3]: 0.0169 nM | koff [3]: 4e-05 s⁻¹ | kon [3]: 2.37e+06 M⁻¹ s⁻¹ | Kd [4]: 0.0224 nM | koff [4]: 7.08e-05 s⁻¹ | kon [4]: 3.16e+06 M⁻¹ s⁻¹ | Kd [5]: 0.0237 nM | koff [5]: 7.79e-05 s⁻¹ | kon [5]: 3.29e+06 M⁻¹ s⁻¹ | Kd [6]: 0.0103 nM | koff [6]: 0.00189 s⁻¹ | kon [6]: 1.84e+08 M⁻¹ s⁻¹ | Kd [7]: 0.0039 nM | koff [7]: 6.05e-05 s⁻¹ | kon [7]: 1.55e+07 M⁻¹ s⁻¹ | IC50 [8]: 1.27 nM | IC50 [9]: 0.338 nM | IC50 [10]: 0.497 nM
B1: Hu29-19T (other)
heavy: STSCREEQGEFYDHLLRDCISCASICGQHPKQCAAFCEGGGGSGGGGSGGGGSQVTLKESGPVLVKPTETLTLTCTVSGFSLTNYAISWVRQPPGKGLEWLGVIWTGGGTNYNSGIKSRLTISKDNSKSQVVLTMTNMDPVDTARYYCVREGDYGSYAGAMDYWGQGTTVTVSSASTKGPSVFPLAPSSKSTSGGTAALGCLVKDYFPEPVTVSWNSGALTSGVHTFPAVLQSSGLYSLSSVVTVPSSSLGTQTYICNVNHKPSNTKVDKKV[here human IgG1 Fc with changes without letters]GGGSSTSCREEQGEFYDHLLRDCISCASICGQHPKQCAAFCESS
light: DIVLTQSPDSLAVSLGERATINCRASESVDYYGISSMHWFQQKPGQPPKLLIYRASNLESGIPARFSGSGSRTDFTLTISSLQAEDVAVYYCQQANKDPYTFGGGTKVEIKRTVAAPSVFIFPPSDEQLKSGTASVVCLLNNFYPREAKVQWKVDNALQSGNSQESVTEQDSKDSTYSLSSTLTLSKADYEKHKVYACEVTHQGLSSPVTKSFNRGEC
notes: anti-IL23 IgG1 with a TACI polypeptide at the N- and the C-terminus of each heavy chain; also called anti-IL23 antibody fusion protein

IC50 for inhibiting IL-17 secretion [1]: 0.0128 nM | Kd [2]: 0.0605 nM | koff [2]: 0.00015 s⁻¹ | kon [2]: 2.47e+06 M⁻¹ s⁻¹ | Kd [3]: 0.0145 nM | koff [3]: 4.22e-05 s⁻¹ | kon [3]: 2.91e+06 M⁻¹ s⁻¹ | Kd [4]: 0.02 nM | koff [4]: 5e-05 s⁻¹ | kon [4]: 2.51e+06 M⁻¹ s⁻¹ | Kd [5]: 0.0277 nM | koff [5]: 7.14e-05 s⁻¹ | kon [5]: 2.58e+06 M⁻¹ s⁻¹ | Kd [6]: 0.0104 nM | koff [6]: 0.00224 s⁻¹ | kon [6]: 2.15e+08 M⁻¹ s⁻¹ | Kd [7]: 0.0694 nM | koff [7]: 0.000498 s⁻¹ | kon [7]: 7.18e+06 M⁻¹ s⁻¹ | IC50 [8]: 1.07 nM | IC50 [9]: 0.0827 nM | IC50 [10]: 0.314 nM
B2: Hu29-24T (other)
heavy: STSCREEQGEFYDHLLRDCISCASICGQHPKQCAAFCEGGGGSGGGGSGGGGSQVTLKESGPVLVKPTETLTLTCTVSGFSLTQYAISWVRQPPGKGLEWLGVIWTGGGTNYNSGIKSRLTISKDNSKSQVVLTMTNMDPVDTARYYCVREGDYGSYAGAMDYWGQGTTVTVSSASTKGPSVFPLAPSSKSTSGGTAALGCLVKDYFPEPVTVSWNSGALTSGVHTFPAVLQSSGLYSLSSVVTVPSSSLGTQTYICNVNHKPSNTKVDKKV[here human IgG1 Fc with changes without letters]GGGSSTSCREEQGEFYDHLLRDCISCASICGQHPKQCAAFCESS
light: B1 light with E17Q
notes: as for B1
